Results taken from the supplement of paper PMC4604168 (melanoma cell lines).
Some of the results follow. Single values are uncertain, as repeats are few or missing.

Assays:
Experiment in all cases: cell count relative to DMSO control; melanoma cells; higher = more viable cells
Conditions in all cases: library dose: low library concentration; 72 h
[1] = system: MZ2-MEL
[2] = system: MeWo
[3] = system: RPMI7951
[4] = system: RVH-421
[5] = system: SkMel28
[6] = system: SkMel2
[7] = system: SkMel30
[8] = system: SkMel5
[9] = system: UACC257
[10] = system: UACC62
[11] = system: WM115
[12] = system: WM1716
[13] = system: WM1745
[14] = system: WM3526
[15] = system: WM3619
[16] = system: WM451Lu
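Further: cell number obtained by counting DAPI-stained nuclei in high-throughput microscope images with image analysis software, screen run in 1,536-well plates.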

Structure (SMILES) | cell count [1] [%] | cell count [2] [%] | cell count [3] [%] | cell count [4] [%] | cell count [5] [%] | cell count [6] [%] | cell count [7] [%] | cell count [8] [%] | cell count [9] [%] | cell count [10] [%] | cell count [11] [%] | cell count [12] [%] | cell count [13] [%] | cell count [14] [%] | cell count [15] [%] | cell count [16] [%]
CNC(=O)c1cc(Oc2ccc(NC(=O)Nc3ccc(Cl)c(C(F)(F)F)c3)cc2)ccn1 [sorafenib] + CCN(CC)CCCCNc1ncc2cc(-c3cc(OC)cc(OC)c3)c(NC(=O)NC(C)(C)C)nc2n1 [PD173074] (first compound 0.4 µM, partner dose 0.1 µM) | 95.5 | 115 | 96.3 | 77.3 | 110 | 100 | 122 | 90.8 | 97.3 | 91.3 | 100 | 86.9 | 99.5 | 107 | 88.4 | 117
C=CCNC1=C2C[C@@H](C)C[C@H](OC)[C@H](O)[C@@H](C)/C=C(\C)[C@H](OC(N)=O)[C@@H](OC)/C=C\C=C(/C)C(=O)NC(=CC1=O)C2=O [Tanespimycin] + COc1cc(N2CCC(N3CCN(C)CC3)CC2)ccc1Nc1ncc(Cl)c(Nc2ccccc2S(=O)(=O)C(C)C)n1 [NVP-TAE684] (first compound 0.002 µM, partner dose 0.08 µM) | 99.4 | 98.9 | 97.1 | 109 | 110 | 89.3 | 87.4 | 78.8 | 69.8 | 94.5 | 84.5 | 99.7 | 90.4 | 92.4 | 87.9 | 89.7
C=CCNC1=C2C[C@@H](C)C[C@H](OC)[C@H](O)[C@@H](C)/C=C(\C)[C@H](OC(N)=O)[C@@H](OC)/C=C\C=C(/C)C(=O)NC(=CC1=O)C2=O [Tanespimycin] + CCN(CC)CCCCNc1ncc2cc(-c3cc(OC)cc(OC)c3)c(NC(=O)NC(C)(C)C)nc2n1 [PD173074] (first compound 0.002 µM, partner dose 0.1 µM) | 101 | 93.2 | 95.8 | 172 | 84.9 | 104 | 107 | 100 | 78.1 | 88.3 | 92.4 | 86.9 | 99.7 | 109 | 95.2 | 106
CN1CCN(c2ccc3nc(-c4c(N)c5c(F)cccc5[nH]c4=O)[nH]c3c2)CC1 [Dovitinib] + COc1ccc(COc2ccc(Cc3cnc(N)nc3N)cc2OC)cc1 [GW2580] (first compound 0.1 µM, partner dose 1 µM) | 83.6 | 99 | 111 | 109 | 87.5 | 111 | 72.4 | 84.3 | 93.5 | 97.4 | 101 | 110 | 77.2 | 88.7 | 118 | 108
